Results published in ChEMBL document CHEMBL5308541, “MAIP: An Open-Source Tool to Enrich High-Throughput Screening Output and Identify Novel, Druglike Molecules with Antimalarial Activity” (ACS Med Chem Lett, 2023).
About 410 (8.5%) of roughly 4,800 compounds showed an effect of 50% or more. Some of the results follow.

System: Plasmodium falciparum
Test: Confirmatory screen in NF54 pLDH assay, in single point, at 2uM, 72h
Assay type: functional, Erythrocyte
Conditions: timepoint 72 hour

In order of falling “% Inhibition” value:
1. Brc1ccc2[nH]c3c(c2c1)CCCC3NC1CCc2[nH]cnc2C1 (stereo unspecified)  104%
2. COc1cc2nc(NCC3(N4CCN(C)CC4)CCCC3)cc(C)c2cc1OC  103%
3. C[C@@H](CNC1CCN(C2CCN(C)CC2)CC1)c1cccc(Cl)c1  103%
4. COC(=O)c1cn(CCNc2ccnc3cc(Cl)ccc23)cc2c(O)nnc1-2  103%
5. O[C@H](COc1ccccc1CNCc1cc(-c2ccccc2)[nH]n1)CN1CCCCC1  103%
6. Fc1ccc(-n2cc(CNCCC3CCN(c4ccncc4)CC3)cn2)cc1  102%
7. Cc1ccc(-c2cc(C(=O)NC3CCN(C4CCN(C)CC4)CC3)n[nH]2)cc1C  102%
8. CCN(Cc1[nH]c2ccc(Cl)cc2c1C)CC1CCN(C2CCN(C)CC2)CC1  102%
9. O=C(Nc1cnc2c(c1)COCC2)c1cc2c(OC(F)(F)F)cccc2[nH]1  102%
10. Cc1ccn2cc(-c3ccc(N4CCC(NCc5cccnc5)CC4)cc3)nc2c1  102%
11. COCCN1CCC[C@@]2(CCN(c3ccnc4cc(Cl)ccc34)C2)C1  101%
12. O=C(NC1CCN(CCOc2ccc(Cl)cc2)CC1)c1c[nH]c2ccncc2c1=O  100%
13. Cc1cc(O)c(Cl)cc1-c1ccc2nccc(N)c2c1  100%
14. Cc1ccccc1-c1cccc(N2CCC(NCC3CCNCC3)CC2)c1  100%
15. CNc1nc(N[C@H]2CCCN(Cc3ccc(Cl)cc3)C2)nc2c1CCC2  100%
16. CCOc1cc(C(=O)NC2CCN(CC3CCCC3)CC2)cc(-c2ccccc2)c1OC  99%
17. CCc1oc2ccccc2c1CNC[C@H](O)c1ccc(Cl)cc1  99%
18. CCOc1ccc2nc(CN(CC)CC3CCN(C4CCN(C)CC4)CC3)ccc2c1  99%
19. Cc1cccc(Nc2ccnc(Nc3ccc(N4CCN(C)CC4)cc3)n2)c1  99%
20. CC(C)CCOc1ccc2[nH]c(-c3cc(N4CCC[C@@H]4CS(C)(=O)=O)ccn3)cc2c1  98%
21. CN(CCCn1ccnc1)c1ccnc2cc(Br)ccc12  98%
22. CCN1CCN([C@H]2CCN(c3ccnc4ccncc34)C2)CC1  98%
23. O[C@@]1(c2c[nH]nn2)CCN(c2ccnc3cc(Cl)ccc23)C1  98%
24. Cc1ocnc1CNC[C@H](O)c1ccc(Cl)c(Cl)c1  97%
25. CN(C)C1CCN(CCN[C@H]2CCc3ccc(F)cc32)CC1  97%
26. NCC1(O)CCN(c2ccnc3cc(F)c(Cl)cc23)CC1  97%
27. Cc1ccc2[nH]c(-c3cc4n(n3)CCN(c3ccnc(N)n3)C4)nc2c1C  97%
28. Clc1ccc2[nH]c3c(c2c1)CCCC3NC1CCN(C2CCOC2)CC1 (stereo unspecified)  96%
29. c1ccc(-c2ccnc(C3CCN(CC45CNCC4C5)CC3)n2)cc1 (stereo unspecified)  96%
30. COc1ccc(-c2cncc(C(=O)NCC3CCN(CCN(C)C)CC3)c2)cc1  96%
31. c1ccc2c(CNCCC3CCN(c4ccncc4)CC3)csc2c1  95%
32. Cc1cnccc1NCCNCc1cccc(OCCCCN2CCOCC2)c1  95%
33. CN1CCC(Oc2ccc(NC(=O)c3cn4ccnc4s3)cn2)CC1  92%
34. CCNc1cc(C)nc(NCCNC(=O)Nc2cc(F)cc(F)c2)n1  92%
35. COCCNc1nc(N[C@@H](C)c2ccccc2)c2ccccc2n1  92%
36. CNc1nc(C)cc(N[C@@H]2COc3ccccc3C2)n1  89%
37. CCCN1CCC(Nc2cc(C)nc3ccccc23)CC1  89%
38. COc1ccc2cc(-c3cc(N)ccn3)[nH]c2c1  89%
39. OC1(c2ccc(Cl)cc2)CCN(C[C@@H]2CCCN3CCCC[C@H]23)CC1  88%
40. c1ccc(CCC23CN(Cc4ccccn4)CC2CN(Cc2ccns2)C3)cc1 (stereo unspecified)  88%
41. c1cncc(-c2ccc(CNC3CCN(Cc4cccs4)CC3)cc2)c1  86%
42. O=C(CCc1nnc(-c2ccc(-c3ccccc3)cc2)o1)NC[C@@H]1CCCN2CCCC[C@H]12  86%
43. CCN1CCN(c2ccc(CNCc3cccc(O)c3)cc2F)CC1  85%
44. CN(C[C@H](O)COc1ccccc1CN1CCC(c2ccncc2)CC1)C1CCCCC1  84%
45. Cc1cccc(N2CCC(NCc3cc(C)cc(CN4CCN(C)CC4)c3C)CC2)c1  84%
46. OC[C@H](CNCc1cc2ccc(F)cc2[nH]1)c1ccccc1Cl  82%
47. COc1ccc2cc(NC(=O)c3cc(-c4c(C)nn(C)c4C)[nH]n3)cnc2c1  81%
48. Cc1cc(NC[C@H](O)COc2ccc(F)cc2)nc2ccccc12  81%
49. O[C@@H](CNCc1cc2cc(Cl)c(Cl)cc2[nH]1)c1ccc(F)cc1  80%
50. Cc1ccc2[nH]c(CNC[C@@H](CO)C3CCC3)cc2c1C  80%
51. NCCCCc1c(-c2cccnc2)[nH]c2c(Cl)cc(Cl)cc12  75%
52. COCCN1CC[C@H](CNC2CCN(c3ncc4ccc(F)cc4n3)CC2)C1  71%
53. Nc1ccc(Nc2ccc(F)cc2)c2ccncc12  70%
54. CN([C@@H](c1ccccc1)c1ccccc1Br)S(=O)(=O)c1c[nH]c2ncccc12  67%
55. CC1(N2CCC2)CCC(NC[C@H]2CCN(Cc3ccccc3)C2)CC1 (stereo partly specified)  66%
56. Cc1nc2ccc(CNC3CCN(c4ccc(F)c(F)c4)CC3)cc2[nH]1  64%
57. COc1ccnc(NCCCc2nc(-c3ccncc3)cs2)n1  64%
58. c1ccc(CN2CCC(CCNC[C@@H]3CCCN4CCCC[C@H]34)CC2)cc1  63%
59. Cc1ccc2nc(CCCNC3CCN(c4cc(C)nc(N)n4)CC3)oc2c1  59%
60. CN1CCC(N(Cc2ccccc2)C(=O)c2cc3cnccc3[nH]2)CC1  58%
61. CN(C)C1(CNc2nc(C(F)(F)F)nc3cc(F)ccc23)CCCCCC1  57%
62. Oc1cccc2c1CCC[C@@H]2NCc1ccc2occc2c1  55%
63. Cc1ccc2[nH]cc(-c3cc(N4CCOCC4)nc(N)n3)c2c1  55%
64. O=C(NCC1CC1)c1cc2c(OCc3ccc(Cl)cc3)cccc2[nH]1  53%
65. Cc1cc(N2CCC(N(C)Cc3cc(-c4ccccc4)n[nH]3)CC2)nc(N)n1  52%
66. CN1C(C)(C)CC(NC(=O)c2ccc(-c3cc(-c4cccc(C(F)(F)F)c4)n[nH]3)cc2)CC1(C)C  47%
67. CN(C[C@H](O)COc1cccc(CNCCCOc2cccnc2)c1)C1CCCCC1  44%
68. CCc1cc(Nc2ccc(N3CCOCC3)nc2)nc(-c2ccncc2)n1  42%
69. CN1CCC(N2CCC(NC(=O)c3ccc(S(=O)(=O)N(C)C4CCCCC4)cc3)CC2)CC1  39%
70. CC(C)(C)n1ncc2c(NCc3ccc4cccnc4c3O)ncnc21  37%
71. C[C@H]1CCCN(CCNC(=O)c2ccc(-c3ccc4c(=O)[nH]ccc4c3)cc2)C1  37%
72. COc1ccc(-c2cc(C(=O)Nc3ccc(N4CCN5CCCC5C4)cc3)c3c(C)noc3n2)cc1 (stereo unspecified)  36%
73. CN(C)CCN1CCC(NC2CCC(O)(c3cccc(Cl)c3)CC2)CC1 (stereo unspecified)  33%
74. O=C(NCc1ccc(OC(F)(F)F)cc1)N(CCN1CCCC1)[C@H]1CCCNC1  33%
75. Cc1cc(NCCCN2CCC[C@H](O)C2)c2cc(F)ccc2n1  31%
76. OCCN1CCC(NCCc2cc(Cl)cc(Cl)c2)CC1  30%
77. CC(C)c1ccc(CN2CCC[C@@](O)(CNCCN3CCNCC3)C2=O)cc1  29%
78. Cc1nc2ccc(Oc3ccccc3)cc2c(O)c1CN(C)C1CCN(C)CC1  28%
79. Cc1cc(NC[C@H]2CN(CC(C)C)CCO2)c2ccccc2n1  28%
80. Cc1ccc(-c2nnc(Nc3ccccc3)c3ccccc23)cc1CN1C(=O)c2ccccc2C1=O  27%
81. CNc1nc(N2CCN(CC(=O)NC3CCCCC3)CC2)nc2ccccc12  26%
82. Nc1nc(NCC2CCN(CCc3ccccc3)CC2)cc([C@H]2C[C@@H](N)C2)n1  26%
83. Cc1nc(-c2ccccn2)nc(NC2CCN(CC(F)F)CC2)c1C  24%
84. CCN(C)CCNc1cc(C)nc(C)n1  23%
85. c1ccc(-c2nc3c(c(NCCNc4ncccn4)n2)CCC3)nc1  23%
86. CCOc1ccc2nc(N3CCCN(Cc4c(C)nn(CC)c4C)CC3)nc(C)c2c1  22%
87. Fc1cccc(Cl)c1CN1CCC(NC[C@H]2CCCOC2)CC1  21%
88. O=C(NCCN1CCCCC1)c1cccc(-c2cnc3ccc(F)cn23)c1  21%
89. COc1ccccc1-c1csc(C2CCN(CC[C@H]3CCCN3C)CC2)n1  19%
90. CCN1CCC[C@H](CNCc2cn(-c3ccccc3)nc2C(C)C)C1  17%
91. Cc1ccccc1-c1cccc(CNCCCN2CCC[C@H](O)C2)c1  17%
92. COCCN1CCC[C@H](CNCc2cnn(-c3ccc4ccccc4c3)c2)C1  13%
93. O=C(CC1CCNCC1F)Nc1ccc(Oc2ccnc3ccccc23)cc1 (stereo unspecified)  12%
94. FC(F)(F)c1ccc(-c2c(-c3ccccc3)ncn2Cc2ncn[nH]2)cc1  7%
95. OC1CN(Cc2cnc(C3CCCCC3)nc2)CCC1Nc1ncccn1 (stereo unspecified)  4%
96. Cn1cc(-c2cncc(C(=O)NC3CCN(c4cccc(F)c4)CC3)c2)cn1  0%
97. Nc1ccnc(-c2cccc3[nH]ccc23)c1  0%
98. CCOc1cccc(N2CCN(C(=O)c3cc(-c4ccc(F)cc4)[nH]n3)CC2)n1  -1%
99. Cc1cc(F)ccc1N1CCC(NCCCNc2cccnc2)CC1  -2%
100. O=C(Nc1cncnc1N1CCCC1)c1cc(F)cc2[nH]cnc12  -8%
101. c1cc(CNC2CCN(C[C@H]3CCOC3)CC2)c2cc[nH]c2c1  -13%
